Assay results from PMC4336329 (PLoS ONE, 2015).
About 14,000 (4.5%) of roughly 310,000 compounds showed an effect of 50% or more. Effects have a minus sign here. The list shows a part of the results.

Molecular target: human ether-à-go-go-related gene (hERG) potassium channel (human, UniProt Q12809)
Assay: primary screen, population patch clamp on CHO cells stably expressing hERG
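Also: peak tail current of the secondary pulse compared with the same well before compound.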

human ether-à-go-go-related gene (hERG) potassium channel, sequence (Q12809 whole entry, looked up): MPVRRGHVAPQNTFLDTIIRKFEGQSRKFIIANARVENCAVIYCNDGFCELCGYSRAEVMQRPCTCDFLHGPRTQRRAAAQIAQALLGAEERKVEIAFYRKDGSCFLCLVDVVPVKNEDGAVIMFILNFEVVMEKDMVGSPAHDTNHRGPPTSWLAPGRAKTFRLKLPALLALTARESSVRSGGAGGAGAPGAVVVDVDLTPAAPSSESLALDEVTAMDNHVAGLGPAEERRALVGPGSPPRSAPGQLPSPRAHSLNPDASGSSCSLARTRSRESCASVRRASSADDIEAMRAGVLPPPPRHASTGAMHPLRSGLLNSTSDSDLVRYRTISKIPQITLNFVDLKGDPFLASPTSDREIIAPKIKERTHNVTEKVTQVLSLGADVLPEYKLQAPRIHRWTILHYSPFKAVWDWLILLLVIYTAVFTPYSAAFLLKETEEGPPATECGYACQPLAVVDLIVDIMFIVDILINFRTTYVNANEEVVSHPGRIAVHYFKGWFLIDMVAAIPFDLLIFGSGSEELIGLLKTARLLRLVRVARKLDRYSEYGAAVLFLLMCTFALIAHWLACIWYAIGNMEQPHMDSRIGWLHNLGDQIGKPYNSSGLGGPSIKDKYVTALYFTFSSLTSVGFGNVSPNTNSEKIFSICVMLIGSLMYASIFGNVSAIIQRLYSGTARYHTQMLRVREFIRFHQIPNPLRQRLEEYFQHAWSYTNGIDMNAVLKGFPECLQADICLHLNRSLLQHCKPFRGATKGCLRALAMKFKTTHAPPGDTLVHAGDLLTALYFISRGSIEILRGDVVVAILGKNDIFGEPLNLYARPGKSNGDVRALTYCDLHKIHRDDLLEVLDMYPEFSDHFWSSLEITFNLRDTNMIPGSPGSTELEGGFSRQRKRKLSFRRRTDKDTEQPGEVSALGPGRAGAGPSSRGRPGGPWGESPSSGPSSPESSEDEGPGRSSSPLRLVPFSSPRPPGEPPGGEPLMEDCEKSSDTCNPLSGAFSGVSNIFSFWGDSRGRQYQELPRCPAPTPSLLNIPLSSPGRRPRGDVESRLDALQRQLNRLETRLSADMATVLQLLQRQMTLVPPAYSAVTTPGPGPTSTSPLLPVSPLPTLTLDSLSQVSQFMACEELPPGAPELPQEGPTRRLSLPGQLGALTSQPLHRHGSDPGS

SMILES | hERG current change (%, negative = inhibition) at 10uM
COc1cc(C2(c3ccc(O)c(OC)c3)C(=O)N(C)c3ccc(C)cc32)ccc1O | -19%
COc1ccc(OC2C(=O)N(c3cc(C)ccc3C)C2c2ccc(OC)c(OC)c2)cc1 (centres unmarked) | 13.7%
Cc1cc(C#N)c(C)n1-c1cc(C(F)(F)F)ccc1N1CCOCC1 | -21.6%
NC(=NCCc1ccccc1)NS(=O)(=O)c1ccccc1 | 9.55%
Cc1nnc(NC(=O)c2cccc(S(=O)(=O)N(C)c3cccc(Cl)c3)c2)s1 | -10.7%
COc1ccc(OC)c(NC(=O)CCC(=O)Oc2ccc(C)cc2)c1 | 10.5%
Cc1ccc(-n2nc3c(=O)n(CC(=O)NCCc4ccc(Cl)cc4)nc(C)c3c2C)cc1 | -10.2%
Cc1cc(C)n(-c2nc3ccccc3c(=O)n2OCC(=O)N(C)C)n1 | 7.66%
CCn1c(=O)c([N+](=O)[O-])c(NCc2ccc3c(c2)OCO3)c2ccccc21 | -3.96%
COc1ccc(/C(C)=N/NC(=O)c2ccc(CSc3nncn3C)cc2)cc1 | -6.17%
CC(C)CNC(=O)C(=O)NCc1ccccc1 | 5.82%
CCOC(=O)C/C(C)=N/NC(=O)CNc1cccc(Cl)c1C | -2.85%
Cc1cccc(OCC(=O)Nc2ccc(S(=O)(=O)N3CCCC3)cc2)c1 | -14.4%
CC(=O)Nc1ccccc1C(=O)N1CCc2ccccc21 | 11.3%
N#CCCN1CCN(S(=O)(=O)c2ccc(S(=O)(=O)N3CCOCC3)cc2)CC1 | 0.386%
O=C(CSc1nnc(-c2ccccc2)n1Cc1ccccc1)NC1CC1 | -49.4%
Cc1ccc([N+](=O)[O-])cc1-c1ccc2cccc(C)c2n1 | 0.254%
Cc1ccc(S(=O)(=O)N2CCC(C(=O)Nc3ccc(S(=O)(=O)N4CCCC4)cc3)CC2)cc1C | -4.77%
CC(C)(C)NC(=O)/C(=C\c1ccco1)NC(=O)c1cccs1 | -9.06%

SMILES | hERG current change (%, negative = inhibition) at 10uM
COc1ccc(NC(=O)C2CSC(C)(C)N2C=O)cc1 (centres unmarked) | 4.83%
Cc1ccc(CN2CCCC(C(=O)c3sccc3C)C2)o1 (centres unmarked) | -11%
COc1ccc(CN2CCNC(=O)C2CC(=O)N2CCCO2)c(OC)c1 (centres unmarked) | 14.2%
C/C(=N\NC(=O)CCc1c[nH]c2ccccc12)c1cccc([N+](=O)[O-])c1 | 6.1%
O=C(Cc1ccc(Cl)cc1)SCc1ccccc1 | 11.3%
CNCC[C@H](Oc1cccc2ccccc12)c1cccs1 | -37.8%
CCn1cc(C(=O)OCC(=O)N(C)C2CCS(=O)(=O)C2)c(=O)c2ccc(C)nc21 (centres unmarked) | -14%
O=C(NCC(=O)N1CCCCC1)c1sc2ccccc2c1Cl | -30.9%
O=C(COC(=O)c1ccccc1Sc1ccc(C(F)(F)F)cc1[N+](=O)[O-])NC(=O)NC1CCCC1 | 4.95%
CC(=O)/C=C(\C)Nc1ccccc1O | 21.3%
O=S(=O)(Oc1ccc(Cl)cc1)c1cccc2cccnc12 | -32.4%
COCCCn1c(C)csc1=Nc1cccnc1 | 4.68%
O=C1Nc2ccccc2C(O)(C(=O)NCc2ccco2)N1c1ccc(Cl)cc1 (centres unmarked) | 2.7%
O=C(CCC(=O)c1ccccc1)Nc1ccccc1OC(F)F | 8.02%
Cc1sc2nc(C)n(/N=C/c3ccc(O)cc3)c(=O)c2c1C | -7.05%
CN(C)S(=O)(=O)c1ccc(C(=O)OCC2COC(C)(C)O2)cc1 (centres unmarked) | 15.7%
CCOC(=O)c1[nH]c(=O)[nH]c1CSc1nc(C)cc(C)n1 | 1.9%
O=C(COC(=O)[C@@H]1CCCN1S(=O)(=O)c1ccccc1F)NCc1ccc2c(c1)OCO2 | -7.58%
CN(C)CCOC(C1CCCCC1)C1CCCCC1.Cl | -20.2%

SMILES | hERG current change (%, negative = inhibition) at 10uM
COc1ccc(N(CC(=O)N2CCc3ccccc32)S(=O)(=O)c2c(C)nn(C)c2C)cc1 | 6.68%
C=C(C)COc1ccc(-c2nc(N)ncc2Oc2ccc(OC)cc2)c(O)c1 | -3.75%
CCCCC1=CC2=C(c3ccco3)C(=O)C(C)(OC(=O)c3ccc(OC)cc3)C(=O)C2=CN1Cc1ccco1 (centres unmarked) | -7.52%
COc1ccc(CC2(CO)CCN(Cc3cnn(C)c3C)CC2)cc1 | -21.6%
CCC(C)(C)n1nnnc1C(c1cc2cc(OC)ccc2[nH]c1=O)N1CCc2ccccc21 (centres unmarked) | -1.46%
Nn1c(SCc2ccccc2F)nnc1-c1ccccn1 | 3.58%
CCN(CC)c1ccc(C(=O)OCC(=O)N2CCCC2)cc1 | 7.65%
COc1ccc(CNC(=O)C(c2ccncc2)N(C(=O)Cc2cccs2)c2cccc(C)c2)cc1 (centres unmarked) | -9.37%
CC(C)CCNC(=O)C(=O)NCc1ccccc1 | 8.32%
CCOC(=O)CSc1nc2ccccc2c(=O)n1C | 10.1%
CCOc1ccccc1OC(C)C(=O)Nc1ccc(S(=O)(=O)N2CCCC2)cc1 (centres unmarked) | -4.66%
Cn1c(CC(=O)Nc2ccccc2Cl)nnc1SCC(=O)NC1=NCCS1 | 14.7%
CC(C)Cc1nnc(NC(=O)Cc2cccs2)s1 | 12.4%
O=c1sc(N2CCN(c3ccc(F)cc3)CC2)nc2ccsc12 | -1.59%
Cc1cc(C(=O)N2CCN(C(c3ccccc3)c3ccccc3)CC2)on1 | -24.2%
CCOC(=O)c1c(OCC)[nH]c2ccc(O)cc12 | -2.73%
O=C(CN(Cc1ccccc1)C(=O)CNS(=O)(=O)c1ccc(F)cc1)NCC1CCCO1 (centres unmarked) | 2.32%
CC(C)n1c(SCc2ccc(Cl)cc2)nc2c1c(=O)[nH]c(=O)n2C | 18.5%
